Measurements: article PMC9606269

B1: Wild-type human PAFR fused at its C terminus to Venus (PAFR-Venus) or to Renilla luciferase 8 (PAFR-Rluc) [human] / Human GRK2 fused to Renilla luciferase [human] (parent)
chain 1: MADLEAVLADVSYLMAMEKSKATPAARASKKILLPEPSIRSVMQKYLEDRGEVTFEKIFSQKLGYLLFRDFCLNHLEEARPLVEFYEEIKKYEKLETEEERVARSREIFDSYIMKELLACSHPFSKSATEHVQGHLGKKQVPPDLFQPYIEEICQNLRGDVFQKFIESDKFTRFCQWKNVELNIHLTMNDFSVHRIIGRGGFGEVYGCRKADTGKMYAMKCLDKKRIKMKQGETLALNERIMLSLVSTGDCPFIVCMSYAFHTPDKLSFILDLMNGGDLHYHLSQHGVFSEADMRFYAAEIILGLEHMHNRFVVYRDLKPANILLDEHGHVRISDLGLACDFSKKKPHASVGTHGYMAPEVLQKGVAYDSSADWFSLGCMLFKLLRGHSPFRQHKTKDKHEIDRMTLTMAVELPDSFSPELRSLLEGLLQRDVNRRLGCLGRGAQEVKESPFFRSLDWQMVFLQKYPPPLIPPRGEVNAADAFDIGSFDEEDTKGIKLLDSDQELYRNFPLTISERWQQEVAETVFDTINAETDRLEARKKAKNKQLGHEEDYALGKDCIMHGYMSKMGNPFLTQWQRRYFYLFPNRLEWRGEGEAPQSLLTMEEIQSVEETQIKERKCLLLKIRGGKQFILQCDSDPELVQWKKELRDAYREAQQLVQRVPKMKNKPRSPVVELSKVPLVQRGSANGL
chain 2: MEPHDSSHMDSEFRYTLFPIVYSIIFVLGVIANGYVLWVFARLYPCKKFNEIKIFMVNLTMADMLFLITLPLWIVYYQNQGNWILPKFLCNVAGCLFFINTYCSVAFLGVITYNRFQAVTRPIKTAQANTRKRGISLSLVIWVAIVGAASYFLILDSTNTVPDSAGSGNVTRCFEHYEKGSVPVLIIHIFIVFSFFLVFLIILFCNLVIIRTLLMQPVQQQRNAEVKRRALWMVCTVLAVFIICFVPHHVVQLPWTLAELGFQDSKFHQAINDAHQVTLCLLSTNCVLDPVIYCFLTKKFRKHLTEKFYSMRSSRKCSRATTDTVTEVVVPFNQIPGNSLKN
B2: Wild-type human PAFR fused at its C terminus to Venus (PAFR-Venus) or to Renilla luciferase 8 (PAFR-Rluc) [human] / Human GRK3 fused to Renilla luciferase [human] (parent)
chain 1: MADLEAVLADVSYLMAMEKSKATPAARASKRIVLPEPSIRSVMQKYLAERNEITFDKIFNQKIGFLLFKDFCLNEINEAVPQVKFYEEIKEYEKLDNEEDRLCRSRQIYDAYIMKELLSCSHPFSKQAVEHVQSHLSKKQVTSTLFQPYIEEICESLRGDIFQKFMESDKFTRFCQWKNVELNIHLTMNEFSVHRIIGRGGFGEVYGCRKADTGKMYAMKCLDKKRIKMKQGETLALNERIMLSLVSTGDCPFIVCMTYAFHTPDKLCFILDLMNGGDLHYHLSQHGVFSEKEMRFYATEIILGLEHMHNRFVVYRDLKPANILLDEHGHARISDLGLACDFSKKKPHASVGTHGYMAPEVLQKGTAYDSSADWFSLGCMLFKLLRGHSPFRQHKTKDKHEIDRMTLTVNVELPDTFSPELKSLLEGLLQRDVSKRLGCHGGGSQEVKEHSFFKGVDWQHVYLQKYPPPLIPPRGEVNAADAFDIGSFDEEDTKGIKLLDCDQELYKNFPLVISERWQQEVTETVYEAVNADTDKIEARKRAKNKQLGHEEDYALGKDCIMHGYMLKLGNPFLTQWQRRYFYLFPNRLEWRGEGESRQNLLTMEQILSVEETQIKDKKCILFRIKGGKQFVLQCESDPEFVQWKKELNETFKEAQRLLRRAPKFLNKPRSGTVELPKPSLCHRNSNGL
chain 2: B1 chain 2
B3: Wild-type human PAFR fused at its C terminus to Venus (PAFR-Venus) or to Renilla luciferase 8 (PAFR-Rluc) [human] / Human β-arrestin1 tagged with Rluc [human] (parent)
chain 1: MGDKGTRVFKKASPNGKLTVYLGKRDFVDHIDLVDPVDGVVLVDPEYLKERRVYVTLTCAFRYGREDLDVLGLTFRKDLFVANVQSFPPAPEDKKPLTRLQERLIKKLGEHAYPFTFEIPPNLPCSVTLQPGPEDTGKACGVDYEVKAFCAENLEEKIHKRNSVRLVIRKVQYAPERPGPQPTAETTRQFLMSDKPLHLEASLDKEIYYHGEPISVNVHVTNNTNKTVKKIKISVRQYADICLFNTAQYKCPVAMEEADDTVAPSSTFCKVYTLTPFLANNREKRGLALDGKLKHEDTNLASSTLLREGANREILGIIVSYKVKVKLVVSRGGLLGDLASSDVAVELPFTLMHPKPKEEPPHREVPENETPVDTNLIELDTNDDDIVFEDFARQRLKGMKDDKEEEEDGTGSPQLNNR
chain 2: B1 chain 2
B4: Halo-tagged wild-type human platelet-activating factor receptor [modified: Halo-tag covalently labelled with HaloTag Alexa Fluor 488 (imaging) or HaloTag Alexa Fluor 660 (blots); Halo-tag covalently labelled with HaloTag Alexa … (parent)
chain: B1 chain 2

Variants of: B1
Assay: BRET between GRK2-Rluc and PAFR-Venus
Conditions: with Human GRK2 fused to Renilla luciferase [human]; PAF (1 μM); parent: 100; read off a plot

Variant	percent of parent [% WT]
chain 2 MEPHDSSHMDSEFRYTLFPIVYSIIFVLGVIANGYVLWVFARLYPCKKFNEIKIFMVNLTMADMLFLITLPLWIVYYQNQGNWILPKFLCNVAGCLFFINTYCSVAFLGVITYNRFQAVTRPIKTAQANTRKRGISLSLVIWVAIVGAASCFLCLDSTNTVPDSAGSGNVTRCFEHYEKGSVPVLIIHIFIVFSFFLVFLIILFCNLVIIRTLLMQPVQQQRNAEVKRRALWMVCTVLAVFIICFVPHHVVQLPWTLAELGFQDSKFHQAINDAHQVTLCLLSTNCVLDPVIYCFLTKKFRKHLTEKFYSMRSSRKCSRATTDTVTEVVVPFNQIPGNSLKN [chain 2 Y151C I154C]	120
chain 2 MEPHDSSHMDSEFRYTLFPIVYSIIFVLGVIANGYVLWVFARLYPCKKFNEIKIFMVNLTMADMLFLITLPLWIVYYQNQGNWILPKFLCNVAGCLFFINTYCSVAFLGVITYNRFQAVTRPIKTAQANTRKRGISLSLVIWVAIVGAASYFLILDSTNTVPDSAGSGNVTRCFEHYKKGSVPVLIIHIFIVFSFFLVFLIILFCNLVIIRTLLMQPVQQQRNAEVKRRALWMVCTVLAVFIICFVPHHVVQLPWTLAELGFQDSKFHQAINDAHQVTLCLLSTNCVLDPVIYCFLTKKFRKHLTEKFYSMRSSRKCSRATTDTVTEVVVPFNQIPGNSLKN [chain 2 E178K]	170

Variants of: B2
Assay: BRET between GRK3-Rluc and PAFR-Venus
Conditions: with Human GRK3 fused to Renilla luciferase [human]; PAF (1 μM); parent: 100; read off a plot

Variant	percent of parent [% WT]
chain 2 MEPHDSSHMDSEFRYTLFPIVYSIIFVLGVIANGYVLWVFARLYPCKKFNEIKIFMVNLTMADMLFLITLPLWIVYYQNQGNWILPKFLCNVAGCLFFINTYCSVAFLGVITYNRFQAVTRPIKTAQANTRKRGISLSLVIWVAIVGAASYFLILDSTNTVPDSAGSGNVTRCFEHYKKGSVPVLIIHIFIVFSFFLVFLIILFCNLVIIRTLLMQPVQQQRNAEVKRRALWMVCTVLAVFIICFVPHHVVQLPWTLAELGFQDSKFHQAINDAHQVTLCLLSTNCVLDPVIYCFLTKKFRKHLTEKFYSMRSSRKCSRATTDTVTEVVVPFNQIPGNSLKN [chain 2 E178K]	180
chain 2 MEPHDSSHMDSEFRYTLFPIVYSIIFVLGVIANGYVLWVFARLYPCKKFNEIKIFMVNLTMADMLFLITLPLWIVYYQNQGNWILPKFLCNVAGCLFFINTYCSVAFLGVITYNRFQAVTRPIKTAQANTRKRGISLSLVIWVAIVGAASCFLCLDSTNTVPDSAGSGNVTRCFEHYEKGSVPVLIIHIFIVFSFFLVFLIILFCNLVIIRTLLMQPVQQQRNAEVKRRALWMVCTVLAVFIICFVPHHVVQLPWTLAELGFQDSKFHQAINDAHQVTLCLLSTNCVLDPVIYCFLTKKFRKHLTEKFYSMRSSRKCSRATTDTVTEVVVPFNQIPGNSLKN [chain 2 Y151C I154C]	150

Variants of: B3
Assay: BRET kinetics between PAFR-Venus and βarr1-Rluc
Conditions: PAF (1 μM) injected at about 50 s, value read at the last time point, about 400 s, parent: 100, read off a plot

Variant	percent of parent [% WT]
chain 2 MEPHDSSHMDSEFRYTLFPIVYSIIFVLGVIANGYVLWVFARLYPCKKFNEIKIFMVNLTMADMLFLITLPLWIVYYQNQGNWILPKFLCNVAGCLFFINTYCSVAFLGVITYNRFQAVTRPIKTAQANTRKRGISLSLVIWVAIVGAASYFLILDSTNTVPDSAGSGNVTRCFEHYEKGSVPVLIIHIFIVFSFFLVFLIILFCNLVIIRTLLMQPVQQQRNAEVKRRALWMVCTVLAVFIICFVPHHVVQLPWTLAELGFQDSKFHQAINDAHQVTLCLLSTNCVLDPVIYCFLTKKFRKHLTEKFYSMRSSRKCSRATTDAVTAVVVPFNQIPGNSLKN [chain 2 T324A E327A]	32

Variants of: B4
Assay: cysteine cross-linking with CuP, SDS-PAGE blot quantification of cell surface Halo-PAFR
Conditions: parent: 5, read off a plot

Variant	screen value [%]
MEPHDSSHMDSEFRYTLFPIVYSIIFVLGVIANGYVLWVFARLYPCKKFNEIKIFMVNLTMADMLFLITLPLWIVYYQNQGNWILPKFLCNVAGCLFFINTYCSVAFLGVITYNRFQAVTRPIKTAQANTRKRGISLSLVIWVAIVCAASYFLILDSTNTVPDSAGSGNVTRCFEHYEKGSVPVLIIHIFIVFSFFLVFLIILFCNLVIIRTLLMQPVQQQRNAEVKRRALWMVCTVLAVFIICFVPHHVVQLPWTLAELGFQDSKFHQAINDAHQVTLCLLSTNCVLDPVIYCFLTKKFRKHLTEKFYSMRSSRKCSRATTDTVTEVVVPFNQIPGNSLKN [chain 1 G147C]	42
MEPHDSSHMDSEFRYTLFPCVYSIIFVLGVIANGYVLWVFARLYPCKKFNEIKIFMVNLTMADMLFLITLPLWIVYYQNQGNWILPKFLCNVAGCLFFINTYCSVAFLGVITYNRFQAVTRPIKTAQANTRKRGISLSLVIWVAIVGAASYFLILDSTNTVPDSAGSGNVTRCFEHYEKGSVPVLIIHIFIVFSFFLVFLIILFCNLVIIRTLLMQPVQQQRNAEVKRRALWMVCTVLAVFIICFVPHHVVQLPWTLAELGFQDSKFHQAINDAHQVTLCLLSTNCVLDPVIYCFLTKKFRKHLTEKFYSMRSSRKCSRATTDTVTEVVVPFNQIPGNSLKN [chain 1 I20C]	50
MEPHDSSHMDSEFRYTLFPIVYSIIFVLGVIANGYVLWVFARLYPCKKFNEIKIFMVNLTMADMLFLITLPLWIVYYQNQGNWILPKFLCNVAGCLFFINTYCSVAFLGVITYNRFQAVTRPIKTAQANTRKRGISLSLVIWVAIVGAASYFLCLDSTNTVPDSAGSGNVTRCFEHYEKGSVPVLIIHIFIVFSFFLVFLIILFCNLVIIRTLLMQPVQQQRNAEVKRRALWMVCTVLAVFIICFVPHHVVQLPWTLAELGFQDSKFHQAINDAHQVTLCLLSTNCVLDPVIYCFLTKKFRKHLTEKFYSMRSSRKCSRATTDTVTEVVVPFNQIPGNSLKN [chain 1 I154C]	50
MEPHDSSHMDSEFRYTLFPIVYSIIFVLGVIANGYVLWVFARLYPCKKFNEIKIFMVNLTMADMLFLITLPLWIVYYQNQGNWILPKFLCNVAGCLFFINTYCSVAFLGVITYNRFQAVTRPIKTAQANTRKRGISLSLVIWVAIVGAASYFLILDSTNTVPDSAGSGNVTRCFEHYEKGSVPVLCIHIFIVFSFFLVFLIILFCNLVIIRTLLMQPVQQQRNAEVKRRALWMVCTVLAVFIICFVPHHVVQLPWTLAELGFQDSKFHQAINDAHQVTLCLLSTNCVLDPVIYCFLTKKFRKHLTEKFYSMRSSRKCSRATTDTVTEVVVPFNQIPGNSLKN [chain 1 I186C]	50
MEPHDSSHMDSEFRYTLFPIVYSIIFVLGVIANGYVLWVFARLYPCKKFNEIKIFMVNLTMADMLFLITLPLWIVYYQNQGNWILPKFLCNVAGCLFFINTYCSVAFLGVITYNRFQAVTRPIKTAQANTRKRGISLSLVIWVAIVGAASCFLILDSTNTVPDSAGSGNVTRCFEHYEKGSVPVLIIHIFIVFSFFLVFLIILFCNLVIIRTLLMQPVQQQRNAEVKRRALWMVCTVLAVFIICFVPHHVVQLPWTLAELGFQDSKFHQAINDAHQVTLCLLSTNCVLDPVIYCFLTKKFRKHLTEKFYSMRSSRKCSRATTDTVTEVVVPFNQIPGNSLKN [chain 1 Y151C]	72
